# Reference: PubChem BioAssay (Tox21)
# Where “and” joins values, the source holds several entries; their conditions need not be identical. Identical values can stand only once. The inconclusive results got no clear call from the source; some entries with a clear call stand among them for comparison. Where the call is inconclusive, the potency comes from a doubtful curve fit. Calls of active or inactive are those of the source. The call rests on the fitted dose curve; in most records, active means well fitted curve in the direction sought with a large enough effect in the repeat runs; inconclusive means weak or mixed curves; inactive means no such curve, though single readings can be large; an effect the other way counts as inactive or inconclusive.
# Experiment: qHTS assay to identify small molecule antagonists of the TGF-beta/Smad signaling pathway - cell viability counter screen (AID 1346824); further: nearly all actives have a fitted effect of over 50% in size
# Conditions: SBE-bla HEK293T viability, CellTiter-Glo luminescence; series mostly up to 76.8 µM
# How it was run: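 SBE-bla HEK 293T cells were plated overnight at 37 C, then given compounds in DMSO plus TGF-beta1 (added as 0.25 ng/mL solution) for 5 hr. After the bla read, CellTiter-Glo was added to the same wells and luminescence read after 30 min at room temperature.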
# Potency means the concentration at half of the fitted maximal effect; tags describe the fitted curve by direction and shape.
row,Structure (SMILES),Potency
1,O=C1C=CC(=O)N1,"inconclusive: 56.4 µM [cytotoxic, single point]"
2,CN1CCN(C2Cc3ccccc3Sc3ccc(Cl)cc32)CC1 (centres undefined),"inconclusive: 21.3 µM [cytotoxic, partial curve, poor fit]"
3,O[C@@H](c1cc(C(F)(F)F)nc2c(C(F)(F)F)cccc12)[C@H]1CCCCN1,"inconclusive: 26.8 µM [cytotoxic, partial curve]"
4,CCN(CC)C(=O)c1cc(S(=O)(=O)Cc2ccccc2)c(N2CCC(c3ccccc3)CC2)cc1N(CC)CCN(C)C,"inconclusive: 19.3 µM [cytotoxic, single point]"
5,CC(=O)OC(OC(C)=O)c1ccc([N+](=O)[O-])o1,"inconclusive: 28 µM [cytotoxic, partial curve, poor fit]"
6,CC(O)C#CC(C)O (centres undefined),"inconclusive: 1.22 µM [cytotoxic, single point]"
7,COCC(=O)O[C@]1(CCN(C)CCCc2nc3ccccc3[nH]2)CCc2cc(F)ccc2[C@@H]1C(C)C,"inconclusive: 26.8 µM [cytotoxic, single point]"
8,Oc1c(Cl)cc(Cl)cc1Sc1cc(Cl)cc(Cl)c1O,"inconclusive: 10.7 µM [cytotoxic, single point]"
9,O=S(=O)(O)c1ccc2nc(-c3ccccc3)[nH]c2c1,"inconclusive: 13.1 µM [cytotoxic, partial curve] and inconclusive: 15.1 µM [cytotoxic, partial curve]"

# Experiment: qHTS assay to identify small molecule agonists of the TGF-beta/Smad signaling pathway - cell viability counter screen (AID 1346829); further: nearly all actives have a fitted effect of over 45% in size
# Conditions: SBE-bla HEK293T viability, CellTiter-Glo luminescence, 5 h; series mostly up to 76.8 µM
# How it was run: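 Here the cytotoxicity of library compounds is measured in SBE-bla HEK 293T cells treated for 5 hr, using CellTiter-Glo added to wells already read for the beta-lactamase reporter.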
row,Structure (SMILES),Potency
1,O=C1C=CC(=O)N1,"inconclusive: 56.4 µM [cytotoxic, single point]"
2,CCN(CC)c1ccc2c(-c3ccc(S(=O)(=O)O)cc3S(=O)(=O)[O-])c3ccc(=[N+](CC)CC)cc-3oc2c1,"inconclusive: 31.9 µM [cytotoxic, partial curve]"
3,CCCCCCCCCCCCN1CCCCCC1=O,"inconclusive: 19.5 µM [cytotoxic, single point]"
4,CCN(CC)C(=O)c1cc(S(=O)(=O)Cc2ccccc2)c(N2CCC(c3ccccc3)CC2)cc1N(CC)CCN(C)C,"inconclusive: 19.3 µM [cytotoxic, single point]"
5,c1cc(C(c2ccc(OCC3CO3)cc2)c2ccc(OCC3CO3)cc2)ccc1OCC1CO1 (centres undefined),"inconclusive: 61.6 µM [cytotoxic, single point]"
6,CC(=O)OC(OC(C)=O)c1ccc([N+](=O)[O-])o1,"inconclusive: 62.7 µM [cytotoxic, single point]"
7,[Cl][Au]([Cl])[Cl],active: 54.9 µM
8,COCC(=O)O[C@]1(CCN(C)CCCc2nc3ccccc3[nH]2)CCc2cc(F)ccc2[C@@H]1C(C)C,"inconclusive: 26.8 µM [cytotoxic, single point]"
9,Oc1c(Cl)cc(Cl)cc1Sc1cc(Cl)cc(Cl)c1O,inconclusive: 24.6 µM [cytotoxic]
10,O=S(=O)(O)c1ccc2nc(-c3ccccc3)[nH]c2c1,"inconclusive: 20.8 µM [cytotoxic, partial curve] and inconclusive: 15.1 µM [cytotoxic, partial curve, poor fit]"
